# Reference: US20250136702A1, “HUMAN LIFR ANTIGEN BINDING PROTEIN, PREPARATION METHOD THEREFOR, AND APPLICATION THEREOF” (NONA BIOSCIENCES (SUZHOU) CO., LTD., priority 2020, published 2025)
# T1: human LIFR-ECD (Homo sapiens, UniProt P42702)
# T1 construct: The extracellular region (1-833 a.a.) of recombinant human LIFR protein; His tag; made in house; host or cells: HEK293 (transient transfection, purified from culture supernatant)
# T1 sequence (P42702 45-833): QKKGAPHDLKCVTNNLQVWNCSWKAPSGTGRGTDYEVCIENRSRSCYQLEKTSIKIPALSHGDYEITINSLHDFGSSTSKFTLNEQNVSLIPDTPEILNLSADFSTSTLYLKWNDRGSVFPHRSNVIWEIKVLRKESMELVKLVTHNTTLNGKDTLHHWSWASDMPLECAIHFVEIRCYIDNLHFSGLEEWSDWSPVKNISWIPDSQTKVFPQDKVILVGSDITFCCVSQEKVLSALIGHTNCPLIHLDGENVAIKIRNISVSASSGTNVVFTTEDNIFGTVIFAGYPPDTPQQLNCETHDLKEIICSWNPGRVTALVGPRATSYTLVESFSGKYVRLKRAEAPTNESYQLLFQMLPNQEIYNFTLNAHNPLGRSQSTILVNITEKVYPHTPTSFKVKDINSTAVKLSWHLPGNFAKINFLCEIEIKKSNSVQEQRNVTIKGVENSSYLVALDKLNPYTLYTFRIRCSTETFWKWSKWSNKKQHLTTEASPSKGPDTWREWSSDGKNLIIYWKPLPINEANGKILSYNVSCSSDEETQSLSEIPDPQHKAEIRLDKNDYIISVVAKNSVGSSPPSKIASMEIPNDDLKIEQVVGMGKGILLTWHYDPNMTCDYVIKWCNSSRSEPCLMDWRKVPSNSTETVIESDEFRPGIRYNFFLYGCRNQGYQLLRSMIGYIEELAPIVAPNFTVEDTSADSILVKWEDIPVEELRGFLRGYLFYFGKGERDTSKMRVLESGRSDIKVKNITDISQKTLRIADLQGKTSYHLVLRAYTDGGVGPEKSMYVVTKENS
# T2: human LIFR/gp130 heterodimer expressed on the surface of 293T cells (Homo sapiens, UniProt P42702)
# T2 construct: expressed in transfected cells; host or cells: HEK293T, lentiviral transduction (lenti-LIFR/gp130), puromycin selection, monoclonal line
# T2 sequence (P42702 45-1097): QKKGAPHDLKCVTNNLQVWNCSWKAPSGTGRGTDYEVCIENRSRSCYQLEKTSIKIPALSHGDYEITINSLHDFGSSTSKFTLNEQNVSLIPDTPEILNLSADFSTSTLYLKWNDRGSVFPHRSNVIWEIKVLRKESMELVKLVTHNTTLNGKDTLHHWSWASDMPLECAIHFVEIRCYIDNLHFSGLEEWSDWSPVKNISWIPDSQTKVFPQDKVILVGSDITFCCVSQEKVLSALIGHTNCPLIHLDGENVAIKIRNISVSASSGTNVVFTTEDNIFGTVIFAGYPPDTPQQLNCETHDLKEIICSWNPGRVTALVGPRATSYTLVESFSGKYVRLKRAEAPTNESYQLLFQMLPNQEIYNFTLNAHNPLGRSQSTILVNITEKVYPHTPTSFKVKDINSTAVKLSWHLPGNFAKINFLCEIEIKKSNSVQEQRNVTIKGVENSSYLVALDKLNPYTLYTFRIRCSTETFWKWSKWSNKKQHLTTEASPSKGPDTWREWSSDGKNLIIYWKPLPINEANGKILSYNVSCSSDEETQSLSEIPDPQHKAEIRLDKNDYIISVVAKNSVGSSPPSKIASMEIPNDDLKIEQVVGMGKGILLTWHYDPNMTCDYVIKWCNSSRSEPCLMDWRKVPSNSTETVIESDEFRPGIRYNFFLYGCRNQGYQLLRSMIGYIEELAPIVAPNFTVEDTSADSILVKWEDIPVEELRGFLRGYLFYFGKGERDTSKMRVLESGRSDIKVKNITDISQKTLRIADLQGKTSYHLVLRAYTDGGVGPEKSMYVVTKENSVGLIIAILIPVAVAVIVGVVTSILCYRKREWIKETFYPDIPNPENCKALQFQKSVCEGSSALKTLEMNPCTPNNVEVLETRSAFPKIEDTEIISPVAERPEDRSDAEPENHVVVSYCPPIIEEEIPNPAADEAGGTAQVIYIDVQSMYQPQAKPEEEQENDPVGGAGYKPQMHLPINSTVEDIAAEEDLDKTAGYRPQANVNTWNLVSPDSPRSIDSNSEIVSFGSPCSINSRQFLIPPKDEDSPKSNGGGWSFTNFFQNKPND
# Columns and labels:
# human LIFR-ECD [1] = target: T1, human LIFR-ECD; assay: Antibody affinity test by Biolayerinterferometry (BLI); format: binding; conditions: antibody immobilized on AHC biosensor, antigen 100, 50, 25 nM
# Description: The binding kinetics of the five antibodies PR300516, PR301127. PR301152, PR301168, PR301211, obtained according to the method of Examples 1-4 of the present invention, were examined by the Biolayerinterferometry (BLI) method (Fortebio octet RED 96e) for the human LIFR-ECD protein.
# Dilute the antibody to be tested to a final concentration of 6 μg/mL, directly immobilize it on the AHC biosensor, perform kinetic measurement, dilute the antigen protein (Human LIF) with 0.02% PBST20 to 3 concentrations of 100 nM. 50 nM, 25 nM, respectively, and the sample was loaded for 70 s, the binding time was 300 s, the dissociation time was 300 s, and 10 mM of glycine-HCl (pH 2.0) was added and regenerated for 15 s. A simple one-to-one Languir binding model (Octet Red 96 data analysis software) was used to calculate the binding rate (kon) and the dissociation rate (kdis), the equilibrium dissociation constant (kD) is calculated as the ratio kdis/kon.
# monkey LIFR-ECD = assay: ELISA binding of antibodies to monkey LIFR-ECD at the protein level
# Description: (§1) The binding ability of the 15 antibodies prepared in examples 1-4 of the present invention to the LIFR-ECD protein was detected based on the ELISA assay method. The binding affinity of different antibodies was determined by comparing their dose response binding curves to LIFR-ECD protein. The specific experimental process is as follows: First, human LIFR-ECD, monkey LIFR-ECD and mouse LIFR-ECD proteins are diluted to a concentration of 1 μg/mL, added to a 96-well plate (100 μL per well) and placed at 4° C. overnight. The 96-well plates were washed three times with PBST solution and then placed at 37° C. for 1 h with the addition of 2% BSA in PBS solution. Antibody seris dilution is prepared and (100 nM, 10-fold-dilution), added to a 96-well plate and incubate at 37° C. for 1 h. After washing three times with PBST solution, add anti-human IgG Fc-HRP secondary antibody (for 5000× dilution) and incubate at 37° C. for 30-60 min. After washing three times with PBST solution, add TMB color development solution for 5-15 minutes, and then add termination solution to ternimate the color development.
# human LIFR-ECD [2] = target: T1, human LIFR-ECD; assay: ELISA binding of antibodies to human LIFR-ECD at the protein level
# Description: as §1
# [3] = target: T2, human LIFR/gp130 heterodimer expressed on the surface of 293T cells; assay: Flow cytometry blocking of huLIF binding to HEK293T-huLIFR/gp130 cells; conditions: compared with the negative control hIgG1
# Description: The ability of the 15 antibodies prepared in examples 1-4 of the present invention to block the binding of the huLIF protein to the human LIFR/gp130 heterodimer expressed on the surface of 293T cells was tested based on flow cytometry. The blocking ability was determined by comparing the dose response curves of different antibodies blocking the binding of huLIF protein to HEK293T-huLIFR/gp130 cells.
# The specific experimental process is: (1) First determine the EC80 concentration of huLIF protein binding to HEK293T-huLIFR/gp130 cells. Label the huLIF protein to obtain the huLIF-biotin protein; (2) make serise diluton of test antibodies and incubate with HEK293T-huLIFR/gp130 cells and huLIF protein (final concentration is the value of EC80) at 4° C. After washing three times with PBS, incubate with APC-labeled Strepavidin secondary antibody for 30 minutes at 4° C. After washing three times with PBS, resuspend the cells with 100 μL FACS buffer; (3) Use flow cytometry to measure the four-channel median fluorescenceDegree value. Use the logarithm of the antibody concentration to base 10 as the abscissa, and plot the four-channel median fluorescence value on the ordinate to compare the IC50 and the peak value of the curve.
molecule,measurement,setting,value
"PR301211: fully human anti-LIFR IgG1 antibody; VH SEQ ID NO: 55, VL SEQ ID NO: 67, HC SEQ ID NO: 79, LC SEQ ID NO: 91 (antibody) heavy: QVQLVESGGGVVQPGRSLRLSCAASGFTFSSYGMHWVRQAPGKGLEWVAVIWFDGSLKYYADSVKGRFAISRDNSKNTLYLQMNSLRAEDTAIFYCARGQLVQDLWGRGTLVTVSS[here human IgG1 constant region without letters] light: DIQMTQSPSTLSASVGDRVTITCRASQSISSWLAWYQQKPGKAPNLLMYKASNLESGVPSRFSGSGSGTEFTLTITSLQPDDFASYYCQQYKSNPLTFGGGTKVEIKRTVAAPSVFIFPPSDEQLKSGTASVVCLLNNFYPREAKVQWKVDNALQSGNSQESVTEQDSKDSTYSLSSTLTLSKADYEKHKVYACEVTHQGLSSPVTKSFNRGEC",Kd,human LIFR-ECD [1],421 pM
same,binding ability to monkey LIFR-ECD protein (in words),monkey LIFR-ECD,have binding ability
same,binding ability to human LIFR-ECD protein (in words),human LIFR-ECD [2],have binding ability
same,block huLIF binding to HEK293T-huLIFR/gp130 (in words),[3],significantly block
